Test results: PubChem BioAssay AID686979 (National Center for Advancing Translational Sciences (NCATS), 2013)
The campaign covered roughly 420,000 compounds. About 50,000 (12%) were called active. The shares of active, inactive and inconclusive entries below differ from those in the screen. Calls follow the shape of the dose curve; as a rule, active = well fitted inhibition curve with a large enough effect; inconclusive = small, poorly fitted or top-dose-only effect; inactive = flat fitted curve, though single readings scatter. Potencies of inconclusive entries are left out as doubtful fits.

Assay: qHTS for Inhibitors of human tyrosyl-DNA phosphodiesterase 1 (TDP1): qHTS in cells in presence of CPT; also: nearly all actives have a fitted effect of over 55% in size
Settings: chicken DT40 Tdp1-/-;hTDP1 cells + 20 nM CPT, ATP luminescence, 48 h; series mostly up to 46.2 µM
Summary of the method: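 Chicken DT40 Tdp1-/- cells stably complemented with human TDP1 were seeded at 400 cells/well in medium containing 20 nM camptothecin, exposed to pin-transferred compounds, and grown at 37 °C for at least 48 hr. Viability was read as ATP luminescence.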
Potency is read from the fitted curve at half-maximal effect; tags tell the direction and shape of the fitted curve.

Row | Structure (SMILES) | Potency
1 | Nc1ccc2c(c1)Cc1ccccc1-2 | inactive
2 | Cc1[nH]c2ccccc2c1CCCNC1CCCCC1 | inconclusive [inhibitor, single point]
3 | COC(=O)/C(C)=C\CC12OC(C)(C)C3CC(C=C4C(=O)c5c(OC)c6c(c(CC=C(C)C)c5OC431)OC(C)(CCC=C(C)C)C=C6)C2=O (configuration not stated) | active: 4.61 µM
4 | COc1ccc(CCn2c(O)c(C=Nc3cccc(F)c3)c(=O)[nH]c2=O)cc1OC | inconclusive [inhibitor, partial curve, poor fit]
5 | NCc1ccccc1Sc1ccccc1CO | inconclusive [inhibitor, single point]
6 | O=C1NC(=O)C(CCc2ccncc2)(Cc2cccc(Cl)c2Cl)C(=O)N1c1ccc(Br)cc1 (configuration not stated) | active: 4.61 µM
7 | CN1C(=O)C(=Cc2sc(=O)n(-c3ccccc3)c2N(C)C)C(=O)N(C)C1=O | active: 16.4 µM
8 | COc1ccc(C=C(C#N)c2ccc(OC)cc2)cc1 | inconclusive [inhibitor, single point]
9 | Cc1ccc(OC(=O)N(C)C[C@@H]2OCc3cnnn3CCCC(=O)N([C@H](C)CO)C[C@H]2C)cc1 | inactive
10 | Cc1nn(CC(C)C)c(Cl)c1C(=O)NC1CCCC1 | inactive
11 | COc1cc2c(cc1OC)-c1c(OC)c(OC)c(OC)c3ccnc(c13)C2=O | active: 4.11 µM
12 | CCC(CC)N1CCN(Cc2nc3ccccc3c(=O)n2-c2ccc(F)cc2)CC1 | inactive
13 | Cn1c(SCC(=O)Nc2ccccc2F)nc2c([nH]c3ccccc32)c1=O | active: 14.6 µM
14 | Cc1csc(NC(=O)C2CCCN(S(=O)(=O)c3ccc4c(c3)oc(=O)n4C)C2)n1 (configuration not stated) | inconclusive [inhibitor, single point]
15 | NCC(=O)c1ccc(Br)cc1 | inactive
16 | COc1ccc(CN2C(=O)NC(=O)/C(=C\c3ccco3)C2=O)cc1 | inconclusive [inhibitor, single point]
17 | Cc1cc(C)c(-c2csc(NC(=O)COC(=O)c3ccc4c(c3)OCO4)n2)c(C)c1 | inconclusive [inhibitor, single point]
18 | Cc1ccccc1C(=O)Nc1ccc2nc(SCC(=O)N(C)c3ccccc3)sc2c1 | inconclusive [inhibitor, single point]
19 | CC(C)c1ccc(Cc2cnc(NC(=O)c3ccc4c(c3)CC(c3ccccc3)OC4=O)s2)cc1 (configuration not stated) | active: 23.1 µM
20 | CN(C)CC1Oc2ccccc2OC1(O)c1ccccc1 (configuration not stated) | active: 2.06 µM
21 | CCCCOc1ccc(Cn2c(=O)oc3ccccc32)cc1 | inconclusive [inhibitor, partial curve]

Row | Structure (SMILES) | Potency
22 | CO[C@H]1[C@@H](O)C[C@H](O[C@H]2[C@@H](O)C[C@H](O[C@H]3[C@@H](O)C[C@H](O[C@H]4CC[C@@]5(C)[C@H](CC[C@@H]6[C@@H]5C[C@@H](O)[C@]5(C)[C@@H](C7=CC(=O)OC7)CC[C@]65O)C4)O[C@@H]3C)O[C@@H]2C)O[C@@H]1C | active: 0.531 µM
23 | c1ccc(C2NCc3ccccc3-n3cccc32)cc1 (configuration not stated) | inconclusive [inhibitor, single point]
24 | COc1cc(C(c2c(O)c3ccccc3oc2=O)c2c(C)n(C)n(-c3ccccc3)c2=O)ccc1O (configuration not stated) | inactive
25 | CCOc1ccc(OCC)c(NC(=O)CN2CCN(c3ccc(C)cc3C)CC2)c1 | inconclusive [inhibitor, single point]
26 | COc1ccc(CN2CCN(c3ncnc4sc5c(c34)CCCC5)CC2)cc1F | active: 8.2 µM
27 | O=c1[nH]c2ccccc2n1C1CCN(C(c2cccs2)c2nnnn2Cc2ccccc2)CC1 (configuration not stated) | active: 18.4 µM
28 | N#Cc1ccc(CN2CC[C@@]3(CCCNC3)C2)cc1 | inactive
29 | CCCCC(=O)N/N=C/c1c(O)n(Cc2ccc(F)cc2)c(=O)[nH]c1=O | inconclusive [inhibitor, single point]
30 | O=C(COc1ccccc1)N1CCN(CC2CC3C=CC2C3)CC1 (configuration not stated) | inconclusive [inhibitor, single point]
31 | C[C@]12CCCCC1=CC(=O)C1C2CC[C@@]2(C)C1C[C@@H](F)[C@@H]2O (some centres not stated) | inconclusive [inhibitor, single point]
32 | COc1ccc(-n2nnnc2C(C2CC2)N2CCC3(CC2)C(=O)NCN3c2ccccc2)cc1 (configuration not stated) | inconclusive [inhibitor, single point]
33 | Cc1nn(C2CCOC(C)(C)C2)c2c1C(c1ccc(OC(C)C)cc1)SCC(=O)N2 (configuration not stated) | inconclusive [inhibitor, partial curve]
34 | COc1ccc(-c2nnc3sc(C4CCCCC4)nn23)cc1OC | active: 18.4 µM
35 | CCc1ccc(CNCCc2ccc(F)cc2)cc1 | inconclusive [inhibitor, single point]
36 | CC(=O)O[C@H]1C(=O)[C@@]2(C)C([C@H](OC(=O)c3ccccc3)[C@]3(O)C[C@H](OC(=O)[C@H](O)[C@@H](NC(=O)Cc4ccccc4)c4ccccc4)C(C)=C1C3(C)C)[C@]1(OC(C)=O)CO[C@@H]1C[C@@H]2O (some centres not stated) | active: 0.184 µM
37 | COc1ccc(-n2nnnc2C(CCSC)N2CCC(n3c(=O)[nH]c4ccccc43)CC2)cc1 (configuration not stated) | inconclusive [inhibitor, single point]
38 | CCN(CC)CCO[C@H]1CC[C@@]2(C)C(=CC[C@@H]3[C@H]2CC[C@]2(C)C(=O)CC[C@H]32)C1 | active: 2.37 µM
39 | C[C@]12CCC(=O)C=C1C=CC1C2CC[C@@]2(C)C1CC[C@@H]2O (some centres not stated) | inconclusive [inhibitor, single point]
40 | C=CCOC(=O)C1C(C(=O)O)C2(Cl)C(Cl)=C(Cl)C1(Cl)C2(Cl)Cl (configuration not stated) | inconclusive [inhibitor, single point]
41 | CCOC(=O)[C@H](CCc1ccccc1)N[C@@H](C)C(=O)N(CC(=O)O)C1Cc2ccccc2C1 | inconclusive [inhibitor, single point]
42 | COc1ccc(CNC(=O)Cn2c(=O)oc3cc(S(=O)(=O)N4CCCC4)ccc32)cc1 | active: 18.4 µM
